# Experimental data: PubChem BioAssay AID1347417 (National Center for Advancing Translational Sciences (NCATS), 2020)
# “And” between values parts separate entries of the source, which are not always exact repeats. Equal entries are not always repeated. Screen size: about 120,000 compounds; about 5,300 (4.4%) were called active. This list was built around the results that the source calls inconclusive (neither active nor inactive); the mix of calls is not that of the screen. Calls follow the shape of the dose curve; as a rule, active = well fitted inhibition curve with a large enough effect; inconclusive = small, poorly fitted or top-dose-only effect; inactive = no such curve, though single readings can be large or run the other way. A potency beside an inconclusive call is a rough fit, not a confirmed value.
# Experiment: qHTS Primary assay for Inhibitors of Plasmodium falciparum Dd2 growth in vitro; also: nearly all actives have a fitted effect of over 65% in size;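 as to activity, negative = inhibition: plate controls were DMSO vehicle for no effect and reference drug for full effect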
# Conditions: P. falciparum Dd2 growth, SYBR Green, 72 h; activity, negative = inhibition: at 28.9 µM (top of the series) unless noted; series mostly up to 28.9 µM
# How it was run: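 Infected erythrocytes (Dd2, 0.3% parasitemia, 2.5% hematocrit final) are added to compound in RPMI-1640/Albumax II medium, grown 72 h at 37C in low oxygen, then lysed with saponin/Triton-X containing SYBR Green and read by fluorescence.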
# Potency is read from the fitted curve at half-maximal effect; tags tell the direction and shape of the fitted curve.
Compound,Potency,"activity, negative = inhibition"
CCOc1ccccc1CN1CCN(c2ncccc2C#N)CC1CCO (stereo unspecified),"inconclusive: 11.2 µM [inhibitor, partial curve]",
Cc1ccccc1CNC(=O)CCC[C@H]1NC[C@@H]2C[C@H]1CN(Cc1ccccc1)C2,"inconclusive: 14.1 µM [inhibitor, partial curve, poor fit]",
O=C(C1CCCCC1)N1CC[C@](O)(c2ccccc2)[C@H](N2CCCC2)C1,"inconclusive: 1.41 µM [inhibitor, partial curve, poor fit]",
C[S+](=O)([O-])N1CC2(CCCN2Cc2ccccn2)Cc2ccccc21 (stereo unspecified),,inconclusive: -174% [inhibitor]
O=[S+]([O-])(c1cccnc1)c1nnn2c1nc(N1CCCCC1)c1ccccc12,"inconclusive: 3.55 µM [inhibitor, partial curve, poor fit] and inconclusive: 11.2 µM [inhibitor, single point]",
CCC(=O)N1CCc2cc(Br)cc(S(=O)(=O)CCC(=O)NCCc3ccc(Cl)cc3)c21,"inconclusive: 17.8 µM [inhibitor, single point]",
CC(C)(C)C(=O)N[C@H]1C[C@@H](Cc2cc(CN3CCN(c4ccccc4)CC3)on2)C1(C)C,"inconclusive: 11.2 µM [inhibitor, single point]",
Cc1cnc(C(=O)N[C@@H]2CCC[C@@H]2C(=O)NCCc2ccccc2)cn1,"inconclusive: 3.98 µM [inhibitor, full curve, poor fit]",
CCCOc1ccc(-c2nn(-c3ccccc3)cc2C2NC(=O)NC(C)=C2C(=O)OC)cc1C (stereo unspecified),active: 10 µM,
Cc1nc(NCCN2CCCC(C(N)=O)C2)c2cccnc2n1 (stereo unspecified),inactive,
CC(C)CCCC(=O)N1CCC2(CC1)Nc1ccccc1NC2=O,inactive,
O=C(NCCC1CCN(C(=O)Nc2cccc(F)c2)CC1)c1ccccc1F,"inconclusive: 11.2 µM [inhibitor, partial curve]",
COCCOc1cc(C)c2c(c1C)C[C@H]([C@H](C)C(=O)Nc1ccccn1)CC2,active: 12.6 µM,
COc1ccc(C(=O)N2CCC3(CC2)CC(N(Cc2ccccc2)C2CC2)CCO3)cn1 (stereo unspecified),"inconclusive: 17.8 µM [inhibitor, single point]",
CCOc1ccc(C2Nc3ccccc3-c3nnc(SCc4ccccc4)nc3O2)cc1OC (stereo unspecified),inactive,
Cc1cc2c(NC3CC(c4nnc(CN(C)C)n4C)C3)ncnc2s1 (stereo unspecified),"inconclusive: 6.31 µM [inhibitor, partial curve, poor fit]",
Cc1cc(C)cc(Nc2nc(-c3ccccc3F)no2)c1,active: 12.6 µM,
CC(C)CCN(Cc1ccco1)C(=O)c1cc2c(Cl)nc3ccccc3c2s1,"inconclusive: 15.8 µM [inhibitor, single point]",
COc1ccc(NC(=O)C2CN(S(=O)(=O)C3CC3)CC23CCCCC3)cc1F (stereo unspecified),"inconclusive: 17.8 µM [inhibitor, single point]",
C=CCn1c(-c2ccc(F)cc2)cn2cc(C(=O)N(C)CCO)nc2c1=O,inactive,
O=S(=O)(NC[C@H]1C[C@@H]2CCN1C[C@@H]2CN1CCc2ccccc2C1)c1ccccc1,"inconclusive: 2.82 µM [inhibitor, partial curve, poor fit]",
CC(C)c1nccn1Cc1cc(C(=O)N(C)Cc2ccccc2Cl)n[nH]1,inactive,

Compound,Potency,"activity, negative = inhibition"
Cn1cccc1CN1CCCCCNC(=O)[C@@H]2CCC[C@@H]21,"inconclusive: 7.08 µM [inhibitor, partial curve, poor fit]",
O=C(NC1CCCCC1)C1CN(C(=O)c2ccc(C(F)(F)F)cc2)CC12CCOCC2 (stereo unspecified),"inconclusive: 17.8 µM [inhibitor, single point]",
O=C(CN1C(=O)COc2ccc(C(=O)COc3ccc(F)cc3)cc21)Nc1ccccc1,inactive,
O=C1CC(c2noc(-c3ccccc3OC(F)(F)F)n2)CN1C1CCCCC1 (stereo unspecified),inactive,
CN1C(=O)c2cccn2CC1C(=O)NCC1CC1 (stereo unspecified),inactive,
O=C(Cc1ccccc1)Nc1sc2c(c1C(=O)Nc1ccc(Cl)cc1)CCCC2,"inconclusive: 17.8 µM [inhibitor, single point]",
O=S1(=O)NCC2(CCCN(Cc3ccccn3)C2)Oc2ncccc21 (stereo unspecified),inactive,
OCc1ccc(CN2C[C@H](O)C[C@H]2c2nc(-c3ccc4c(c3)OCO4)no2)o1,"inconclusive: 11.2 µM [inhibitor, partial curve, poor fit]",
Cc1ccc(CN2CCc3nc(C4CC4)nc(-c4ccc(O)cc4)c3CC2)cc1,"inconclusive: 1.58 µM [inhibitor, full curve, poor fit]",
CC(C)CCNC(=O)C1C(c2cccc(NC(=O)c3ccco3)c2)OC(=O)N1Cc1ccccc1 (stereo unspecified),inactive,
CC(C)CC(=O)NC1CCCc2c1[nH]c1c(Cl)cccc21 (stereo unspecified),inactive,
COc1ccc(-c2nc(SCC(=O)Nc3ccc4c(c3)OCO4)c(-c3ccc(OC)cc3)[nH]2)cc1,,inconclusive: -107% [inhibitor] [at 5.79 µM]
CCOc1ccc(S(=O)(=O)N2CCN(c3c(C)cccc3C)CC2)c2ccccc12,"inconclusive: 10 µM [inhibitor, single point]",
Cc1ccc(NC(=O)N2CCCCCCNC(=O)[C@@H]3CCCC[C@@H]32)cc1C,"inconclusive: 20 µM [inhibitor, single point]",
Fc1ccccc1-c1nnc([C@H]2CCN(Cc3cccc(OC(F)(F)F)c3)C2)o1,"inconclusive: 15.8 µM [inhibitor, partial curve, poor fit]",
CC(NC(=O)Nc1ccccc1C(F)(F)F)c1c(-n2cccc2)sc2c1CCCC2 (stereo unspecified),"inconclusive: 11.2 µM [inhibitor, single point]",
COc1ccc(OC)c(NC(=O)Cn2cccc2-c2nc(-c3ccc4c(c3)OCO4)no2)c1,"inconclusive: 17.8 µM [inhibitor, single point]",
CCOC(=O)N1CCC(COc2ccc3c(cnn3CC[S+](C)(=O)[O-])c2)CC1,"inconclusive: 5.62 µM [inhibitor, single point]",
Cc1ccccc1NS(=O)(=O)c1nnc(NC(=O)c2ccccc2C)s1,,inconclusive: -85.5% [inhibitor] [at 5.79 µM]
COc1ccc(-c2cn3cc(C(=O)N4CCCCC4)nc3c(=O)n2CC2CC2)cc1,"inconclusive: 7.94 µM [inhibitor, partial curve]",
O=C1CC2CCN(C(=O)C3CCCCC3)CC2CCN1 (stereo unspecified),inactive,
CCC(C)C(=O)N1CCC2(CC1)NCCc1c2[nH]c2ccc(OC)cc12 (stereo unspecified),"inconclusive: 7.94 µM [inhibitor, partial curve, poor fit]",

Compound,Potency,"activity, negative = inhibition"
CCN(C(=O)c1cc2c(s1)-c1ccccc1OC2)c1cc(Cl)ccc1OC,"inconclusive: 10 µM [inhibitor, single point]",
O=S(=O)(c1ccc(Cl)cc1)c1nnn2c1nc(N1CCCCC1)c1ccccc12,"inconclusive: 7.94 µM [inhibitor, single point]",
CC(=O)N1CCC(CC(=O)NCCc2ncc(C)n2C(C)C)CC1,inactive,
Cc1ccc(C(CC(=O)N2CCCCC2)c2cn(C)c3ccccc23)cc1 (stereo unspecified),"inconclusive: 1.41 µM [inhibitor, partial curve, poor fit]",
O=C(Nc1ccc([C@@H](O)[C@H]2COCC(=O)N2Cc2ccccc2F)cc1)C1CCCCC1,"inconclusive: 10 µM [inhibitor, single point]",
CCCCN1CCCc2cc(CN(CCCN3CCOCC3)C(=O)Nc3ccc(OCC)cc3)ccc21,"inconclusive: 17.8 µM [inhibitor, single point]",
COc1ccc(C)cc1Nc1c2c(nc3nc(-c4cccs4)nn13)CCCC2,,inactive: 46.7% [at 0.594 µM]
COc1cccc(CN2CCc3nc(SCC(=O)Nc4ccccc4)[nH]c(=O)c3C2)c1,inactive,
COC(=O)CNC(=O)c1nc(-c2ccsc2)c2cnccn12,inactive,
COc1ccc(OC)c(C2CCN(c3ncncn3)C2)c1 (stereo unspecified),"inconclusive: 0.0631 µM [inhibitor, full curve, poor fit]",
CCc1ccc(NC(=O)Cn2c3ncccc3c(=O)n2-c2ccc(C)c(C)c2)cc1,"inconclusive: 12.6 µM [inhibitor, single point]",
CC[C@H]1CN2CC[C@H]1C[C@@H]2CNC(=O)c1ccc(N(C)C)cc1,inactive,
NC(=O)C1CCN(C(=O)C2CCCN(S(=O)(=O)c3ccccc3)CCC(=O)NCC2)CC1 (stereo unspecified),inactive,
COc1ccc(CC(=O)N2CCC3(CC2)CC(N[S+](C)(=O)[O-])c2ccccc23)cc1 (stereo unspecified),,inconclusive: -102% [inhibitor]
CCc1ccc(CNC(=O)[C@@]23CCCC[C@H]2N(C)C(=O)CC3)cc1,inactive,
CC(=O)N1Cc2ccccc2CC2(CCN(CC3CCCCC3)CC2)C1,"inconclusive: 10 µM [inhibitor, partial curve]",
CNC(=O)c1cnn2cc(C)ccc12,inactive,
O=C(/C=C/c1ccc(F)cc1)Nc1nc2n(n1)C(c1ccc(Cl)cc1)C=C(c1ccccc1)N2 (stereo unspecified),active: 11.2 µM,
COCC1CN(Cc2cc(F)cc(Br)c2)CC12CCNCC2 (stereo unspecified),"inconclusive: 2 µM [inhibitor, full curve, poor fit]",
COc1ccc(Cn2c(C(=O)O)c(CNC3CCCCCC3)c3ccc(OC)cc32)cc1,"inconclusive: 11.2 µM [inhibitor, single point]",
CCn1cc(-c2ccncc2)cc1C(=O)NCc1ccc(Cl)cc1,"inconclusive: 3.98 µM [inhibitor, single point]",
COc1ccccc1C(=O)NCCn1cc(SCc2ccccc2Cl)c2ccccc21,active: 3.98 µM,
